Experimental data from the supplement of paper PMC3334620.
In all, about 33,000 sequences were measured (“E-score (-0.5 to 0.5)”: median about -0.043, highest 2% from about 0.37 on). The list shows a part of the results.

What follows are sequences tested against T1, Upc2 (UniProt Q12151) (assay: PBM E-score (8-mer binding enrichment) (E-score (-0.5 to 0.5)); higher = stronger / more preferred TF binding; most listed sequences are background and not binding sites). Details: protein concentration: 200 nM; construct: GST-full length.
T1 sequence: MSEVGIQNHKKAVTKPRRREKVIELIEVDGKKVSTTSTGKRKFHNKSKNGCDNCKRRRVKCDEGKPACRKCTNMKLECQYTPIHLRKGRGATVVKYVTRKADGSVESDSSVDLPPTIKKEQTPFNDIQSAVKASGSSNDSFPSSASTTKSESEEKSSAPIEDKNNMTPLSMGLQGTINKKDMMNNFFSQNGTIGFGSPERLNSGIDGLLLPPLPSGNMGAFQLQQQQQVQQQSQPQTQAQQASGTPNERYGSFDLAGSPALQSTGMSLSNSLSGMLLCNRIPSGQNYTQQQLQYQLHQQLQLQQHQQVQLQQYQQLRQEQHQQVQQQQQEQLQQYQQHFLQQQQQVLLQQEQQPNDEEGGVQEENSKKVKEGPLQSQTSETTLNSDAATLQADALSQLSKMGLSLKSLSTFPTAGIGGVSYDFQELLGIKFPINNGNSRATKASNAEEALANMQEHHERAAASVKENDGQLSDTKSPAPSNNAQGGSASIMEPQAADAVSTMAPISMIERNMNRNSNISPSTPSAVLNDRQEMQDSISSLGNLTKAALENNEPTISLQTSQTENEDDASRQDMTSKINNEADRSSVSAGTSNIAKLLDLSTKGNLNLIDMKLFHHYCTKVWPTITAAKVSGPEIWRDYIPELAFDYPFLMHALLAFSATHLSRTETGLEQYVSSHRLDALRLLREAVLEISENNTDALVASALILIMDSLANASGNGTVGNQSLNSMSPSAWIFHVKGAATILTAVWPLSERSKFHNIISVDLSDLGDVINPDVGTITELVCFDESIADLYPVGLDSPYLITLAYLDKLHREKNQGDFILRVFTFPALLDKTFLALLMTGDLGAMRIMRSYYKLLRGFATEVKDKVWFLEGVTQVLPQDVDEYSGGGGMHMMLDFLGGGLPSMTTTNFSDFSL
How it was run: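 Detection of bound protein used fluorescent anti-GST, with scans normalised by masliner. The proteins were GST-tagged yeast transcription factors applied at about 100-200 nM to universal all-10-mer Agilent arrays made double-stranded by primer extension. Each ungapped eight-base word, pooled with its reverse complement, was scored with an E-score from the Universal PBM Analysis Suite.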

Row | Sequence | PBM E-score
1 | GACCATAA | 0.0712
2 | ATAAGCCA | 0.0295
3 | ACAGGTGG | 0.0641
4 | CGCCCACA | -0.0806
5 | AGCGTTCG | 0.0144
6 | ATAGGGCG | -0.0378
7 | AGAGCTGC | -0.212
8 | AGTATAGC | 0.128
9 | GATAATCC | -0.113
10 | AAGGTAGC | -0.085
11 | CCTGCACG | -0.0833
12 | ATGCTACA | -0.0387
13 | CTATTGAC | -0.166
14 | CGTAAGAA | 0.288
15 | CTATCGTA | 0.43
16 | CAATTTTC | 0.0889
17 | AGATCCTC | 0.112
18 | ACCATGAG | -0.0554
19 | CAATGAAC | 0.077
20 | ACACCACG | -0.0964
21 | ATTATGGC | -0.176
22 | CAAAATGA | -0.116
23 | GTGGTATA | 0.0869
24 | AACATAAT | 0.0318
25 | CCTTATCC | -0.109

Row | Sequence | PBM E-score
26 | CCCCCTGA | -0.297
27 | ACGAGCAA | 0.326
28 | AGGGGGCA | -0.253
29 | CGATCCCA | 0.0331
30 | AAGAAACT | -0.0808
31 | ATCTGTTA | 0.0137
32 | ACAATTCC | -0.355
33 | ACAACGAA | 0.195
34 | CGCCGAAG | -0.0603
35 | ACCACTGG | -0.0523
36 | GCCCAGGC | -0.233
37 | ACTGCAAT | -0.0195
38 | ACTCGCGA | 0.183
39 | GACGCGCC | 0.176
40 | AGCAGCAG | -0.132
41 | CGACCACA | 0.121
42 | CTACGGAG | -0.138
43 | GCCAGACC | -0.138
44 | CAAGCTAC | -0.00047
45 | AGGGCTTG | -0.106
46 | CGGGATAG | -0.0352
47 | AGCTGGAG | -0.00115
48 | ATGCGCCC | -0.105
49 | CGTTGGGA | 0.0328
50 | GACAGTAA | -0.0697

Row | Sequence | PBM E-score
51 | TGAATAAA | 0.0883
52 | ATGAAGGG | -0.0382
53 | CTACGTCA | -0.0626
54 | CACGTTAG | -0.145
55 | CACCAATC | -0.249
56 | ACGAGTCT | 0.293
57 | CTGGCAGA | -0.107
58 | CCGTGTCG | -0.0027
59 | ACAGAGCC | -0.276
60 | GTCAACTA | -0.294
61 | ACAGCGGT | -0.15
62 | GGCGTTAA | 0.161
63 | ATCACGGA | -0.0106
64 | AATACGCG | 0.19
65 | CCCCTATA | 0.0494
66 | TATCATCA | -0.0809
67 | ACTCGATA | 0.0839
68 | CATCGAAA | 0.0196
69 | AATGTCGG | 0.139
70 | AGAGCGCG | 0.0869
71 | ATCTCAAC | 0.0568
72 | CCCTATTA | -0.181
73 | ACAGGGTG | -0.155
74 | CAGGCCAA | -0.22
75 | CCAAAGCG | -0.125

Row | Sequence | PBM E-score
76 | ATATTGGG | 0.0143
77 | AGTTAACT | -0.14
78 | CATGTCAA | -0.0832
79 | GAATCAGC | -0.265
80 | AATGACCC | -0.157
81 | AAACAGTA | 0.116
82 | GCATATGA | 0.0441
83 | AATGGGCG | -0.0334
84 | AAGAGTTA | -0.0945
85 | CGAGCCTA | 0.146
86 | GTCACCAA | -0.183
87 | AATGGGGA | -0.0507
88 | TGGGGGAA | -0.277
89 | CCACGGTA | -0.099
90 | ACGCGCTG | 0.0918
91 | GACACAAC | -0.112
92 | AGCTCGTG | 0.107
93 | GCCTCCAC | -0.0944
94 | ACCGATCC | -0.0521
95 | CTGCACGA | 0.102
96 | AAACGTTT | 0.281
97 | CCTTTAGC | -0.00828
98 | CATACCGC | 0.00223
99 | CTGTGCCC | -0.219
100 | AGTGTTCA | -0.2

Row | Sequence | PBM E-score
101 | GAGGAGAC | -0.108
102 | ACCCGTCC | -0.303
103 | TCCTAGAA | -0.105
104 | ATAGGGCC | -0.167
105 | TCCGGGCA | 0.161
106 | CCGAGTTC | 0.126
107 | CCTCGATC | 0.0193
108 | CGATACGC | 0.267
109 | GAAACCAA | -0.176
110 | AAGCGCGC | 0.152
111 | ACGTGCTG | 0.0659
112 | AGGGTTAT | -0.156
113 | CCATGAGA | -0.131
114 | GCTATGTA | -0.143
115 | AATATGGC | -0.0605
116 | AGTGCACA | 0.0223
117 | CAAAATGC | -0.0081
118 | AGCCTGTC | 0.0666
119 | ATTCTACA | -0.111
120 | AGAGGGCC | -0.0273
121 | AAATTGGG | 0.00764
122 | TACTTAGA | 0.00361
123 | ACCAGGCA | -0.248
124 | CTAACGCC | 0.0311
125 | GTGGGATA | 0.0222

Row | Sequence | PBM E-score
126 | ATCAGTGG | -0.214
127 | ACATTGGG | -0.0677
128 | TTGATCAA | 0.0218
129 | ACGGACGA | 0.0286
130 | CAGTAACA | -0.0459
131 | CCAAGCCC | -0.0688
132 | GTTGCGGA | 0.0539
133 | CTTTTATA | 0.0638
134 | TACAACCA | -0.0982
135 | ACGAATCC | 0.335
136 | AGCTCTCC | -0.142
137 | CCGCAGTC | 0.0832
138 | CCTTACAG | -0.114
139 | AGAGAGCC | -0.133
140 | ATGTTTTA | 0.0561
141 | AGCATCTG | -0.0337
142 | TAACCTGA | 0.0333
143 | AATGGCGG | -0.25
144 | CTCAAACC | -0.177
145 | ATGCTGCG | -0.176
146 | CACAGTAG | 0.136
147 | CCATCTTA | 0.0595
148 | CGAGGGAG | 0.0244
149 | ACTAGTTG | -0.244
150 | GTACAGAC | 0.239

Row | Sequence | PBM E-score
151 | AATCGGTC | 0.0916
152 | CCCTCTGC | -0.211
153 | CCGATACA | 0.159
154 | ATGTAGAG | -0.1
155 | ATCCATCG | 0.166
156 | CCCTCTAG | -0.247
157 | CACAATGA | -0.0947
158 | CAAAATTG | -0.022
159 | AAGTCTGG | -0.0137
160 | ATCATATG | -0.0228
161 | CAGCAGCA | -0.132
162 | AGTCTGCA | -0.153
163 | GATAACGA | 0.17
164 | GACTCGCA | -0.0142
165 | TAGGGGCA | -0.154
166 | CGGATGAA | 0.0727
167 | CTTTAAAC | 0.182
168 | GCTCTTCA | -0.134
169 | CATACTCA | -0.0484
170 | AACCCGGC | 0.145
171 | AGTCGGGA | 0.0265
172 | GACTGCGC | -0.0278
